# In PubChem BioAssay AID686979 (National Center for Advancing Translational Sciences (NCATS), 2013):
# Hit rate of the full screen: of about 420,000 compounds, about 50,000 (12%) were called active. Inconclusive means that the source gave no clear call. Such entries were picked first, then a sample of the others. The call rests on the fitted dose curve; in most records, active means well fitted inhibition curve with a large enough effect; inconclusive means small, poorly fitted or top-dose-only effect; inactive means flat fitted curve, though single readings scatter. Potencies of inconclusive entries are left out as doubtful fits.
# Assay: qHTS for Inhibitors of human tyrosyl-DNA phosphodiesterase 1 (TDP1): qHTS in cells in presence of CPT; further: nearly all actives have a fitted effect of over 55% in size
# Settings: chicken DT40 Tdp1-/-;hTDP1 cells + 20 nM CPT, ATP luminescence, 48 h; series mostly up to 46.2 µM
# Summary of the method: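 Chicken DT40 Tdp1-/- cells complemented with human TDP1, 400 cells/well, exposed to compounds plus 20 nM camptothecin for at least 48 h at 37 C; viability read as ATP content by CellTiter-Glo luminescence.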
# Potency means the concentration at half of the fitted maximal effect; tags describe the fitted curve by direction and shape.
row,Compound,Potency
1,COc1ccccc1C(=O)NC1=NC(c2ccc(Br)cc2)CC(=O)N1 (centres undefined),"inconclusive [inhibitor, single point]"
2,O=S(=O)(Nc1ncnc2sc3c(c12)CCC3)c1ccc2ccccc2c1,inactive
3,C/C(CC(=O)Nc1cccc(Cl)c1)=N\NC(=O)Cc1ccc(Cl)cc1,inactive
4,N#Cc1ccc(C23CC4(C2)[C@H](CN(CC2CCCCC2)[C@@H]4c2ccccc2)C3c2ccccc2)cc1 (some centres undefined),"inconclusive [inhibitor, single point]"
5,CCc1cc2c(SCC(=O)Nc3ncc(Cl)c(C)c3Cl)ncnc2s1,inactive
6,Cc1ccc(CNC(=O)C2CCN(S(=O)(=O)c3ccc4c(c3)CC(C)N4C(=O)C3CCC3)CC2)o1 (centres undefined),"inconclusive [inhibitor, single point]"
7,COc1cc(-c2cc(OC)c3c(C)oc(C)c3c(=O)c2)ccc1OC(=O)c1ccccc1F,active: 8.2 µM
8,CC(C)Cn1c(N)c(C(=O)COC(=O)c2cc(-c3ccccc3)nc3ccccc23)c(=O)n(C)c1=O,active: 20.6 µM
9,CCC[C@@H]1C[C@@H](C(=O)N[C@@H]([C@H]2O[C@H](SC)[C@H](OP(=O)(O)O)[C@@H](O)[C@H]2O)[C@H](C)Cl)N(C)C1,inactive
10,Cc1ccc(NC(=S)N/N=C2\CCCCC2C)cc1 (centres undefined),active: 5.17 µM
11,CC[C@@H](C)[C@@H]1CN([C@@H](C)CN2CCC[C@H]2CN2C(N)=NC[C@@H]2Cc2ccccc2)C(=N)N1CCCC1CCCC1,"inconclusive [inhibitor, single point]"
12,CCCCN1CC(C)(C)[C@H](CC(=O)Nc2ccc(Br)cc2)C1=O,"inconclusive [inhibitor, single point]"
13,CC(C)C[C@H](N)c1nnc(SCc2ccc(Cl)cc2)o1,"inconclusive [inhibitor, single point]"
14,C#CCNC(=O)C[C@@H]1C[C@@]2(C(=O)OC)CC(C)(C)CC=C2N(Cc2ccccc2)C1=O,"inconclusive [inhibitor, partial curve]"
15,CCc1cc(C(=O)NCC2Cc3cc(C)cc(-c4cc(C(C)=O)ccc4F)c3O2)n(C)n1 (centres undefined),"inconclusive [inhibitor, single point]"
16,CCN(CC)C(=O)COc1c(-c2ccco2)oc2ccccc2c1=O,inactive
17,CSCC(=O)N1CCCC(CNC(=O)c2ccccc2Cl)C1 (centres undefined),inactive
18,O=C(NCCc1ccncc1)Nc1ccc(Cl)c(Cl)c1,inactive
19,Cc1ccc(-n2nc3c(c2NC(=O)c2ccco2)CS(=O)C3)c(C)c1 (centres undefined),inactive
20,CCOc1ccc2oc(-c3ccccc3)c(C(=O)N(C)C)c2c1,"inconclusive [inhibitor, single point]"
21,COc1ccc(CC(=O)N(Cc2ccccc2)c2ccc(C)cc2)cc1S(=O)(=O)N1CCOCC1,active: 18.4 µM
22,Cc1cc(=O)oc(C)c1C(=O)NCc1ccc(F)cc1,inactive
23,O=C(COC(=O)C1CC(O)CN1S(=O)(=O)c1ccccc1[N+](=O)[O-])c1ccc[nH]1 (centres undefined),inactive
24,COC(CN(C(=O)CCl)C(C(=O)NC1CCCC(C)C1C)c1ccc(C)cc1)OC (centres undefined),active: 5.17 µM
25,O=C(NC12CC3CC(CC(C3)C1)C2)N1CCN(c2nc(-c3ccccc3)cs2)CC1,"inconclusive [inhibitor, single point]"

row,Compound,Potency
1,COc1ccccc1/C=C\C(=O)NCC(=O)N/N=C/c1ccc(O)cc1O,"inconclusive [inhibitor, single point]"
2,Cc1ccc2c(c1)C(=O)C(=O)N2Cc1ccc(C(F)(F)F)cc1,active: 0.92 µM
3,O=C(NCCNC(=O)c1ccc(-c2cc(Cl)ccc2Cl)o1)c1cnccn1,"inconclusive [inhibitor, single point]"
4,CCN(CC)S(=O)(=O)c1ccc2c(c1)N(CC(=O)N(CCc1ccncc1)C(C)C)C(=O)CO2,inactive
5,CCCCCCNC(=O)n1cc(F)c(=O)[nH]c1=O,active: 10.6 µM
6,COc1cc(OC)cc(C(=O)NNS(=O)(=O)c2ccc(F)cc2)c1,inactive
7,Cc1ccc(C(=O)COC(=O)c2cccc(NC(=O)c3ccc([N+](=O)[O-])cc3[N+](=O)[O-])c2)cc1,"inconclusive [inhibitor, partial curve, poor fit]"
8,CCC(C)n1nccc1NC(=O)C(C)Cl (centres undefined),"inconclusive [inhibitor, full curve, poor fit]"
9,CCN(CC)C(=O)Nc1ccc(OCC(O)CNC(C)(C)C)c(C(C)=O)c1 (centres undefined),inactive
10,Cc1oc2ccccc2c1CC(=O)NCCCN(C)C,inactive
11,N#Cc1cc(-c2ccccc2)cnc1Sc1ccccc1,inactive
12,Cc1cc(O)c(/C=N/Nc2ccccc2Cl)c(=O)o1,inactive
13,CC(C)N(C(=O)CSc1nc(Cc2ccccc2)nc2ccccc12)C(C)C,"inconclusive [inhibitor, single point]"
14,CC(C)N(C(=O)CO/N=C/c1cccc([N+](=O)[O-])c1)C(C)C,"inconclusive [inhibitor, single point]"
15,O=C(OC1CC2CC1[C@H]1CCCCN1C2=O)N1CCN(S(=O)(=O)c2ccccc2)CC1 (some centres undefined),inactive
16,CCc1ccccc1NC(=O)Cn1c(=O)oc2ccccc21,active: 2.31 µM
17,CCN1C(=O)c2cccc3c(S(=O)(=O)NCCCN4CCOCC4)ccc1c23,"inconclusive [inhibitor, single point]"
18,CCCN(C(=O)Cn1nc(Cc2cccnc2)c2ccccc2c1=O)c1ccc(C(C)C)cc1,active: 23.1 µM
19,CCCCN(C(=O)c1ccc(Cl)cc1)C1CC2CCC(C1)N2C (centres undefined),inactive
20,CC1(C)Cc2c(sc3nnn(CC(=O)Nc4ccccc4)c(=O)c23)CO1,inactive
21,COC(=O)C1CC2=C(CCCC2=O)N(Cc2ccccc2)C1=O (centres undefined),"inconclusive [inhibitor, partial curve, poor fit]"
22,CN(C)S(=O)(=O)c1cccc(NC(=O)Cn2cnc3ccccc3c2=O)c1,inactive
23,O=C(Cc1ccccc1)NCCSC1CCCCC1,inactive
24,CCOc1ccc(CCNC(c2nnc(-c3ccccc3)o2)c2ccccc2Cl)cc1OCC (centres undefined),active: 14.6 µM
